The text below walks through data of ChEMBL document CHEMBL1201862, “PubChem BioAssay data set” (2004).

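Growth conditions: 96-well plates. Treatment: test compound, 48 hours, 5 concentrations. Analysis: linear interpolation between bracketing concentrations; unreached endpoints set to highest concentration. At the GI50, growth is halved.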 The source made the active and inactive calls. No stated cut-off is given here; in the data, active = GI50 up to about 1.1 µM and inactive = higher.

The assay relates to NCI-H322M. The experiment in a line: DTP human tumour cell line panel, 48 h.
Take `Oc1cc(-c2ccccc2)c2ccccc2n1`: the GI50 is inactive: 48.5 µM.

`Cc1ccc(SCN2CCCCC2)cc1.O=C(Cl)c1ccc([N+](=O)[O-])cc1`: the GI50 is inactive: 10.5 µM. The figure for `COc1nc(C#CC2CCCCC2)nc(OC)n1` is inactive: 11.4 µM; for `CC(C)[Si]1(C(C)C)OCC2OC(N3C(=O)NC(=O)C[C@@H]3C(O)c3ccccc3)CC2O[Si](C(C)C)(C(C)C)O1` (some centres undefined) it is inactive: 14 µM. The figure for `COCC12CC(CC1=O)C1C2ON2c3ccccc3C(=O)C12c1ccccc1` (centres undefined) is inactive: > 100 µM; for `CC(C)OP(=O)(OC(C)C)/C(Cl)=N/Nc1ccc([N+](=O)[O-])cc1` it is inactive: 72.8 µM; for `CC1=C(C(=O)Nc2cccc(C(F)(F)F)c2)C(c2ccccc2F)C(C(=O)Nc2cccc(C(F)(F)F)c2)=C(C)N1` it is inactive: 2.35 µM. Next, `C[C@@H](NC(=O)c1ccc(CNC(=O)/C=C/c2cccc(Oc3ccccc3)c2)cc1)c1ccccc1`: inactive: > 52.1 µM; `Cc1cc(Cl)cc2c1NC(=O)/C2=N\Nc1ccccc1[N+](=O)[O-]`: inactive: > 100 µM; `Cc1n[n+](CC(=O)c2ccccc2)c2sc(N)nn12`: inactive: > 100 µM. `CC(=O)Nc1cc(N(CCOS(C)(=O)=O)CCOS(C)(=O)=O)ccc1N=O`: the GI50 is inactive: > 100 µM. The figure for `C=CCN1C(=O)/C(=C/c2ccco2)N=C1SC1OC(COC(C)=O)C(OC(C)=O)C(OC(C)=O)C1OC(C)=O` (centres undefined) is inactive: > 100 µM; for `Cc1cc(C(C)C)cc(=O)c(O)c1` it is inactive: > 100 µM; for `C(/C=N/N=C1NCCN1)=N\N=C1NCCN1` it is inactive: > 100 µM.

In the case of `O=C1OC(c2ccco2)=N/C1=C\c1cccc([N+](=O)[O-])c1`, the GI50 was inactive: > 100 µM. `CCCCCCCCC(=O)NCCN(CCN)C(=O)CCCCCCCC`: the GI50 was inactive: 19.6 µM. For the molecule `CC(=O)OCC(OC(C)=O)C(OC(C)=O)C(OC(C)=O)C(=O)CNn1c(-c2ccccc2Cl)nc2ccccc2c1=O` (centres undefined), the GI50 was inactive: > 100 µM. With `[O-][Cl+3]([O-])([O-])O.c1ccc(/N=c2\nc(N3CCOCC3)ss2)cc1`, the GI50 was inactive: 52.7 µM. The figure for `COc1ccc(NC(C)=O)cc1N1C(=O)/C(=C\c2cccc(Oc3ccccc3)c2)S(=O)(=O)C1c1ccccc1` (centres undefined) is inactive: > 100 µM; for `O=C1c2ccccc2-c2ccc(/N=N/c3c(O)ccc4ccccc34)cc21` it is inactive: > 100 µM.

On to `S=c1oc(CCCCCCCCc2nn(CNc3ccc(Cl)cc3)c(=S)o2)nn1CNc1ccc(Cl)cc1`, for which the GI50 was inactive: > 100 µM.

For `COc1cc2c(cc1OC)C(=O)N(c1ccc(O)cc1)C2`, the GI50 was inactive: > 100 µM. Next, `CCOC(=O)c1c(N2CCCC2)[nH]c(=O)c(C(c2ccc(N(C)C)cc2)c2c(O)c(C(=O)OCC)c(N3CCCC3)[nH]c2=O)c1O`: inactive: > 100 µM. Next, `C=C[C@@H](C)[C@H](NS(=O)(=O)c1ccc(C)cc1)C(=O)OCC`: inactive: 53.2 µM; `COc1ccccc1/N=N/c1c(O)c(S(=O)(=O)O)cc2cc(S(=O)(=O)O)ccc12`: inactive: > 100 µM. The figure for `C=C(C)CCC(O)[C@](C)(O)[C@H]1[C@H](O)C[C@@]2(C)[C@@H]3CCc4c(cc(OC5OC(CO)C(O)C(O)C5O)c(O)c4C)C3(C)C(=O)C[C@]12C` (some centres undefined) is inactive: > 100 µM; for `C[C@]12CCC[C@H](OC=O)C1(O)C[C@H](C(=O)O)CC2` (some centres undefined) it is inactive: > 100 µM; for `COCC([C@@H](O)C(O)C(=O)NCC[C@@H](C)c1nc(/C=C/CC2OC3(C[C@H](O)C2C)OC(C(C[C@H](O)C(C)[C@H](O)C(C)/C=C(C)/C(C)=C/C=C/C(C)=C/C#N)OC)[C@@H](OP(=O)(O)O)C3(C)C)co1)N(C)C` (some centres undefined) it is active: 0.000198 µM. With `O=C(O)c1ccc2nc(-c3ccccn3)c(-c3ccccn3)nc2c1`, the GI50 was inactive: > 100 µM.
